# Results from PubChem BioAssay AID651813 (National Center for Advancing Translational Sciences (NCATS), 2012).
# About 1,100 (52%) of roughly 2,100 compounds were called active. So high a share suggests a set chosen from earlier hits. Inconclusive results, whose numbers are uncertain, are shown with a selection of clear calls. Calls come from the whole dose curve; as a rule, active = well fitted inhibition curve with a large enough effect; inconclusive = small, poorly fitted or top-dose-only effect; inactive = no such curve, though single readings can be large or run the other way. Potencies of inconclusive entries are left out as doubtful fits.
# Target: DNA dC->dU-editing enzyme APOBEC-3G (Homo sapiens) (UniProt Q9HC16)
# UniProt Q9HC16, sequence (Q9HC16 whole entry, looked up): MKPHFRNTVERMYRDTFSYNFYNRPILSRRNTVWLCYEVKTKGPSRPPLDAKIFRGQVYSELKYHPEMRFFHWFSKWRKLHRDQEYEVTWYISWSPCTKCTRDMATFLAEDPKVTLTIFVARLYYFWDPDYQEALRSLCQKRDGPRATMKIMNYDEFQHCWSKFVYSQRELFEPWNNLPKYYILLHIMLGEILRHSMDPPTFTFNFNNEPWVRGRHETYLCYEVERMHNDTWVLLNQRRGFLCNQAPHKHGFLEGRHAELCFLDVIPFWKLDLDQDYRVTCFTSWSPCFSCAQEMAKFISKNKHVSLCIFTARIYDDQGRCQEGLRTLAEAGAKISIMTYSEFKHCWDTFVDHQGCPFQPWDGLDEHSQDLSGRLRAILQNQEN
# Experiment: qHTS for inhibitors of Vif-A3G interactions: Cherry picks counterscreen;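 note: hits raise yellow fluorescence by blocking Vif-driven A3G-eYFP degradation; nearly all actives have a fitted effect of over 70% in size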;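 for max response: max response given as percent of control signal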
# Details: HeLa A3G-eYFP + Vif (tagged APOBEC3G with the HIV-1 protein that degrades it), eYFP fluorescence, 24 h
# Excerpt: The recent discovery and characterization of host restriction factors, which provide a potent defense to invading retroviruses, has provided new targets for antiviral drug development. APOBEC3G (A3G) and APOBEC3F (A3F) are potent cytidine deaminases that block HIV-1 replication; HIV-1 expresses the Vif protein, which counteracts A3G and A3F by binding to them and inducing their proteasomal degradation. The Vif-A3G and Vif-A3F interactions provide two potential targets for development of small molecules which can interfere with the ability of Vif to degrade A3G or A3F. […] To identify inhibitors that can interfere with Vif mediated degradation of A3G and A3F, we have developed Hela cell lines that stably express A3G or A3F tagged with eYFP at the C-terminal end (A3G-eYFP or A3F-eYFP, respectively) and Vif. In the absence of an inhibitor, Vif induces degradation of A3G-eYFP and A3F-eYFP, and the cells are not fluorescent. In the presence of an inhibitor, it is expected that Vif will be unable to degrade A3G-eYFP and/or A3F-eYFP, resulting in an increase in yellow fluorescence. In this counterscreen assay, Vif A3G was screened against the cherry picks ordered from the MLSMR. NIH Chemical Genomics Center [NCGC] NIH Molecular Libraries Probe Centers Network [MLPCN] MLPCN Grant: MH093245 Assay Submitter (PI): Vinay Pathak, National Cancer Institute
# A3G-Vif cells were harvested from T225 flask and resuspended in phenol free OPTI-MEM medium with 5% FBS. Then 5 uL of 140,000 cells/mL resuspended cells was dispensed into each well of low base Aurora COC 1,536-well plates (black walled, clear bottom) using a Multidrop Combi dispenser. After overnight culture at 37 deg C with 5% CO2, a total of 23 nL of compounds at 5 selected concentrations from the NPC or positive control (2 mM stock of MG132) in DMSO was transferred to each well of the assay plate using a pintool (Kalypsys, San Diego, CA), and the plates were further incubated at 37 deg C with 5% CO2 for 24 hours. After that, the plates were measured on Acumen Explorer (TTP Lab Tech). The fluorescence was detected by 488 nm/Ex and […].
# Potency is the fitted concentration of half-maximal effect; tags give direction and shape of the fitted curve.
SMILES,Potency,max response
O=C(C[C@@H]1C/C=C/CC[C@H](Cc2ccc(F)cc2)C(=O)OC[C@@H](Cc2ccccc2)NC1=O)N[C@H](CO)Cc1ccccc1,"inconclusive [inhibitor, single point]",–
CC1CCN(c2ccc3c(c2)S(=O)(=O)c2cccc(C(=O)NCc4cccc(F)c4)c2C3=O)CC1,active: 14 µM,–
COc1ccccc1/C=C/C=N/NC(=O)c1cc(-c2ccc(C)o2)[nH]n1,"inconclusive [inhibitor, single point]",–
COc1ccccc1N(C)S(=O)(=O)c1ccc(C(=O)OCC(=O)N2CCC2)cc1,"inconclusive [inhibitor, single point]",–
CCN(CC)c1nc(C=Cc2ccc(N(C)C)cc2)c2nccnc2n1,active: 0.651 µM,–
Cc1cc(C)cc(NC(=O)Cn2c(=O)oc3cc(S(=O)(=O)N4CCC(C)CC4)ccc32)c1,"inconclusive [inhibitor, single point]",–
O=C(N/N=C/c1ccc([N+](=O)[O-])o1)c1cc(-c2ccc(-c3ccccc3)cc2)nc2ccccc12,"inconclusive [inhibitor, full curve, poor fit]",–
CC(/C=C/c1ccc(N(C)C)cc1)=N\N=C(/N)SC1CC(=O)N(c2ccc(C(=O)O)cc2)C1=O (stereo not given),–,inactive: -29.3%
CC(C)(C)c1ccc(OCC(=O)Nc2ccc3c4c(cccc24)C(=O)NC3=O)cc1,–,inactive: 43.9%
COc1ccccc1N1C(=O)C(Cl)=C(Nc2ccccc2O)C1=O,"inconclusive [inhibitor, single point]",–
ClCC1NCC(c2ccccc2Cl)c2c1[nH]c1ccccc21 (stereo not given),–,inactive: -28%
COc1ccccc1CNC(=O)c1ccc2nc3[nH]c4ccccc4c3nc2c1,–,inactive: 6.47%
COc1cccc(Nc2nc(Nc3ccc(Cl)c(C(=O)O)c3)nc(C)c2[N+](=O)[O-])c1,"inconclusive [inhibitor, full curve, poor fit]",–
COC(=O)[C@@]1(Cc2ccccc2)[C@@H]2C(=CC(=O)[C@H]2CC(=O)C(=O)N(C)C)CN1C(=O)c1ccccc1,"inconclusive [inhibitor, single point]",–
c1ccc(-c2cnn3c(-c4ccccc4)c(-c4ccccc4)nc3n2)cc1,active: 2.59 µM,–
COC(=O)c1ccc(Nc2c([N+](=O)[O-])ccc3nonc23)cc1,"inconclusive [inhibitor, single point]",–
Cc1nn(Cc2c(Cl)cccc2Cl)c(C)c1NC(=O)c1cc(C(C)C)on1,"inconclusive [inhibitor, single point]",–
CCN(CC)c1cc(C)c(/C=C/c2ccnc3ccccc23)cc1C,active: 16.4 µM,–
Cc1cc(C)nc(Nc2n[nH]c(COc3cccc4ccccc34)n2)n1,"inconclusive [inhibitor, partial curve, poor fit]",–
CNCC(O)Cn1c2c(c3ccccc31)CCCC2 (stereo not given),–,inactive: 20.6%
CC(=O)Nc1ccc(Nc2c3c4c(cccc4n(C)c2=O)C(=O)c2ccccc2-3)cc1,"inconclusive [inhibitor, full curve, poor fit]",–
O=C(/C=C/c1ccco1)NC(=S)Nc1cccc(-c2nc3ccccc3o2)c1,active: 4.98 µM,–
COc1cc(Cl)c(C)cc1Nc1nc2ccccc2nc1NS(=O)(=O)c1ccccc1,active: 20.6 µM,–

SMILES,Potency,max response
Cc1cccn2c(=O)c3cc(C#N)c(=NC(=O)c4cccs4)n(CCCOC(C)C)c3nc12,–,inactive: -8.85%
C/C(=N\NC(=O)c1cc(C)nc2ccccc12)c1ccncc1,–,inactive: -20.6%
CCCN1CCc2c(sc(NC(=S)NC(=O)c3ccccc3)c2C#N)C1,active: 14.6 µM,–
Clc1ccccc1/C=N/NC1=Nc2cccc3cccc1c23,active: 9.2 µM,–
Cc1ccc2oc(/N=C(\N)NC(=O)C(C)(C)C)nc2c1,–,inactive: -19%
CN1/C(=C\C=C2/SC(=S)N(CC(=O)O)C2=O)C(C)(C)c2ccccc21,–,inactive: 52.2%
NC1=NC(=O)/C(=C/c2cc(Br)c(O)c(Br)c2)S1,"inconclusive [inhibitor, single point]",–
COc1ccccc1C1=NOC(COc2ccc3c(C)cc(=O)oc3c2)C1 (stereo not given),active: 0.559 µM,–
S=C(NCc1ccco1)Nc1ccc(Cl)cn1,–,inactive: -10.1%
CCOC(=O)N1CCC(Nc2nc3ccccc3n3nnnc23)CC1,"inconclusive [inhibitor, single point]",–
COc1ccc2oc(=O)c(-c3nc4ccccc4o3)cc2c1,active: 10.3 µM,–
Cc1ccc(S(=O)(=O)N2CCCCC2CCNC(=O)C(=O)NCc2ccco2)cc1 (stereo not given),"inconclusive [inhibitor, partial curve]",–
COc1cc(/C=C(\C#N)c2nc3ccc(C)cc3[nH]2)ccc1OC(C)C,"inconclusive [inhibitor, single point]",–
Cc1ccc(/C(C#N)=C\c2ccc(N3CCOCC3)o2)cc1,active: 17.7 µM,–
COc1ccc(S(=O)(=O)NCc2ccccn2)cc1NC(=O)c1ccccc1,active: 15.8 µM,–
Cc1ccccc1Cn1c(=N)n(CC(=O)c2ccc([N+](=O)[O-])cc2)c2ccccc21,"inconclusive [inhibitor, single point]",–
O=S(=O)(Nc1nc2ccccc2nc1N1CCN(c2ccccn2)CC1)c1ccc(Cl)cc1,active: 16.4 µM,–
NC(=S)N/N=C/c1ccccc1OC(=O)/C=C/c1ccccc1,–,inactive: 5.74%
COc1ccc2oc(-c3ccccc3[N+](=O)[O-])cc(=O)c2c1,active: 5.59 µM,–
COc1cccc(Cn2c3ccc(NC(=O)CCc4ccc(F)cc4)cc3c(=O)n2C)c1,"inconclusive [inhibitor, full curve, poor fit]",–
O=S(=O)(Nc1nc2ccccc2nc1N1CCN(c2ccccc2)CC1)c1ccc(F)cc1,"inconclusive [inhibitor, single point]",–
COc1ccc(C(=O)Nc2cc(C(C)=O)c(/C=C/N(C)C)oc2=O)cc1,active: 9.94 µM,–
